Measurements reported in the supplement of paper PMC12009370.
The list shows a part of the results. Repeats are few or missing, and single values can be far off.

Tests used:
IMR-32 [1] = assay: drug sensitivity score (DSS), single drug with vehicle (DSS (score)); higher = more cytotoxic; extreme values may be limits of the assay; conditions: 72 h; co-treatment: vehicle (DMSO)
SK-N-AS [2] = assay: as above; conditions: 72 h; co-treatment: vehicle (DMSO)
SK-N-AS [3] = assay: drug sensitivity score (DSS) in combination with SL-176 (DSS (score)); higher = more cytotoxic; extreme values may be limits of the assay; conditions: 72 h; co-treatment: SL-176 11.2 uM (IC25 in IMR-32)
IMR-32 [4] = assay: as above; conditions: 72 h; co-treatment: SL-176 11.2 uM (IC25 in IMR-32)
SK-N-AS [5] = assay: drug sensitivity score (DSS) in combination with GSK2830371 (DSS (score)); neuroblastoma lines; SL-176 and GSK2830371 are WIP1 inhibitors; higher = more cytotoxic; extreme values may be limits of the assay; conditions: 72 h; co-treatment: GSK2830371 at IC25 in IMR-32
IMR-32 [6] = assay: as above; conditions: 72 h; co-treatment: GSK2830371 at IC25 in IMR-32
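For drug sensitivity score (DSS) in combination with GSK2830371 in this document: neuroblastoma cells in 384-well plates, each compound at five concentrations, luminescence read-out, DSS derived from fitted concentration-response curve combining IC50 with minimum and maximum inhibition.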
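For drug sensitivity score (DSS) in combination with SL-176 in this document: cells in 384-well plates, luminescence read-out, each screening drug at five concentrations, DSS derived from the fitted concentration-response curve combining IC50 with minimum and maximum inhibition.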
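For drug sensitivity score (DSS), single drug with vehicle in this document: 384-well screen with five concentrations per compound and a luminescence read-out, DSS computed from the fitted dose-response curve combining IC50 with minimum and maximum inhibition.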

Structure (SMILES) | drug sensitivity score (IMR-32 [1]) | drug sensitivity score (SK-N-AS [2]) | drug sensitivity score (SK-N-AS [3]) | drug sensitivity score (IMR-32 [4]) | drug sensitivity score (SK-N-AS [5]) | drug sensitivity score (IMR-32 [6])
CC(C)n1nc(-c2ccc3oc(N)nc3c2)c2c(N)ncnc21 [Sapanisertib] | 12.2 | 15 | 14.3 | 10.6 | 15.8 | 17.4
Clc1ccc(C(c2ccccc2Cl)C(Cl)Cl)cc1 (centres undefined) [Mitotane] | 0 | 0 | 0 | 0 | 0 | 0
Cc1ccc(NC(=O)c2ccc(CN3CCN(C)CC3)cc2)cc1Nc1nc(-c2cccnc2)cs1 [Masitinib] | 6.6 | 4.2 | 4.1 | 6.9 | 3.8 | 8.7
NC(=S)N/N=C/c1ncccc1N [Triapine] | 11.3 | 1.4 | 2 | 9.4 | 1.1 | 15
COc1ccc(C[C@H](NC(=O)[C@H](C)NC(=O)CN2CCOCC2)C(=O)N[C@@H](Cc2ccccc2)C(=O)C2(C)CO2)cc1 (stereo in doubt) | 17.8 | 19.7 | 20.1 | 21.1 | 19.7 | 17.1
COc1cc2c(NC3CCN(C(C)C)CC3)nc(N3CCC(F)(F)CC3)nc2cc1OCCCN1CCCC1 | 3.1 | 6.6 | 5.4 | 5.6 | 5.4 | 5.1
CN1CCN(C(=O)c2ccc3cc(CCNc4ncnc5ccc(C#N)cc45)ccc3c2)CC1 [Senexin B] | 4.9 | 0.2 | 0 | 3.6 | 0.5 | 7.4
CC(=O)c1cnc2ccc(-c3cc(Cl)c(O)c(Cl)c3)nc2c1N[C@H]1CC[C@H](CN(C)C)CC1 | 26.6 | 16.1 | 16 | 26.7 | 16.2 | 27.9
C=CC(=O)Nc1cccc(Oc2nc(Nc3ccc(N4CCN(C)CC4)cc3)nc3ccsc23)c1 [Olmutinib] | 0 | 0.1 | 0.4 | 0 | 0 | 0.5
CC(C)Cn1cnc2c(N)nc3ccccc3c21 [Imiquimod] | 0.1 | 0 | 0 | 0.5 | 0 | 0
C=CC(=O)Nc1cccc(Nc2nc(Nc3ccc(N4CCN(C(C)=O)CC4)cc3OC)ncc2C(F)(F)F)c1 [Rociletinib] | 9 | 6.6 | 7 | 7.8 | 7.4 | 6.1
COc1ncc(-c2ccc3nccc(-c4ccnnc4)c3c2)cc1NS(=O)(=O)c1ccc(F)cc1F [Omipalisib] | 12.3 | 16 | 15.6 | 14 | 15.5 | 17.7
C/C=C1\NC(=O)[C@H]2CSSCC/C=C/[C@H](CC(=O)N[C@H](C(C)C)C(=O)N2)OC(=O)[C@H](C(C)C)NC1=O [Romidepsin] | 33.4 | 27.1 | 25.7 | 33.8 | 28.3 | 29.5
Cc1nc2cccc(N)c2c(=O)n1C1CCC(=O)NC1=O (centres undefined) | 0 | 0 | 0 | 0 | 0.1 | 0
CO[C@@H]1[C@H](N(C)C(=O)c2ccccc2)C[C@H]2O[C@]1(C)n1c3ccccc3c3c4c(c5c6ccccc6n2c5c31)C(=O)NC4 [Midostaurin] | 22.4 | 12.7 | 9.5 | 23.2 | 10.7 | 23.8
Cc1ccc(=O)n(-c2ccccc2)c1 [Pirfenidone] | 1.1 | 0 | 0 | 0.3 | 0 | 0
Cc1ccc(NC(=O)c2ccc(CN3CC[C@H](N(C)C)C3)c(C(F)(F)F)c2)cc1Nc1nccc(-c2cncnc2)n1 [Bafetinib] | 0 | 0.3 | 0.9 | 0 | 1 | 0
N[C@@H]1CCCN(c2c(/C=C3\SC(=O)NC3=O)cccc2-c2ccccc2)C1 | 8.9 | 0.9 | 0.1 | 12.5 | 1.3 | 13
COc1cc(Nc2ncc(F)c(Nc3ccc4c(n3)N(COP(=O)(O)O)C(=O)C(C)(C)O4)n2)cc(OC)c1OC [Fostamatinib] | 0.3 | 0.5 | 0.9 | 2.3 | 0 | 2.4
N#Cc1ccc(C(c2ccc(C#N)cc2)n2cncn2)cc1 [Letrozole] | 0 | 0 | 0 | 0 | 0 | 0
CC(C)Nc1cc(-c2c[nH]c(C(=O)N[C@H](CO)c3cccc(Cl)c3)c2)c(Cl)cn1 [Ulixertinib] | 2.8 | 16.3 | 16.5 | 4.2 | 16.4 | 6.1
CCCCCCCCc1ccc(CCC(N)(CO)CO)cc1 [Fingolimod] | 7 | 6.7 | 7.6 | 7.2 | 8.2 | 4.9
O=C1NC(=O)[C@@H](c2cn3c4c(cccc24)CCC3)[C@@H]1c1c[nH]c2ccccc12 [Tivantinib] | 9.1 | 9 | 8.2 | 9.7 | 8.4 | 10
COc1cc2nccc(Oc3ccc(NC(=O)C4(C(=O)Nc5ccc(F)cc5)CC4)cc3)c2cc1OC [Cabozantinib] | 0 | 0 | 0 | 0.2 | 0 | 0
CN(C)CC#Cc1ccc(OCCCc2sc(N3CCc4cccc(C(=O)Nc5nc6ccccc6s5)c4C3)nc2C(=O)O)c(F)c1 | 8.8 | 1.4 | 1.1 | 14.6 | 2.5 | 16.7
FC(F)(F)c1ccc(/C=C/c2nc(COc3ccc(CCCCn4ccnn4)cc3)co2)cc1 [Mubritinib] | 0 | 4.2 | 2.2 | 4.3 | 3 | 1.1
Cc1cn(-c2cc(NC(=O)c3ccc(C)c(Nc4nccc(-c5cccnc5)n4)c3)cc(C(F)(F)F)c2)cn1 [Nilotinib] | 3.8 | 3.8 | 3.7 | 5.1 | 0.2 | 4.2
CCS(=O)(=O)Nc1ccc(Oc2ccc(F)cc2F)c(-c2cn(C)c(=O)c3[nH]ccc23)c1 [Mivebresib] | 26.7 | 19.6 | 19.9 | 27.5 | 20.3 | 34.7
O=c1ncn2nc(Sc3ccc(F)cc3F)ccc2c1-c1c(Cl)cccc1Cl [Neflamapimod] | 2.7 | 0 | 0.5 | 0 | 0.1 | 2.8
